# Results reported in the antibiotic and cytotoxicity screens of Wong et al. (2023).
# This is one part of the list.
# Test system: HSkMC (human skeletal muscle cells)
# Experiment: cytotoxicity call (relative viability < 0.9)
# Conditions: 10 µM
row,SMILES,cytotoxicity call
1,C[C@H]1CN([C@@H](C)CO)C(=O)c2cccc(NC(=O)c3nc4ccccc4s3)c2O[C@@H]1CN(C)Cc1ccc(C(=O)Nc2ccccc2N)cc1,inactive
2,C[C@@H]1CCCCO[C@@H](CN(C)S(=O)(=O)c2ccc(F)cc2)[C@H](C)CN([C@@H](C)CO)C(=O)c2cc(NC(=O)C3CCCCC3)ccc2O1,inactive
3,Cc1ccc(S(=O)(=O)Nc2ccc3c(c2)C(=O)N([C@@H](C)CO)C[C@@H](C)[C@H](CN(C)S(=O)(=O)c2ccc(F)cc2)O3)cc1,inactive
4,C[C@H](CO)N1C[C@H](C)[C@H](CN(C)C(=O)CN(C)C)Oc2cc(C#CCC3CCCC3)ccc2S1(=O)=O,inactive
5,c1ccc(Oc2ccncc2)cc1,inactive
6,C[C@@H]1CN([C@@H](C)CO)C(=O)Cc2cc(NC(=O)C3CCCCC3)ccc2O[C@H]1CN(C)Cc1ccc(Cl)c(Cl)c1,inactive
7,O=C(N[C@H](c1ccc(F)cc1)c1ccc2ccccc2n1)C1CCN(Cc2ccc3ccccc3n2)CC1,inactive
8,CC(C)NC(=O)Nc1ccc2c(c1)C(=O)N([C@H](C)CO)C[C@H](C)[C@H](CN(C)C(=O)Nc1ccc(C(F)(F)F)cc1)OCCCC[C@H](C)O2,inactive
9,COc1cc([C@@H]2c3cc4c(cc3[C@@H](O[C@@H]3O[C@@H]5CO[C@@H](C)O[C@H]5[C@H](O)[C@H]3O)[C@@H]3COC(=O)[C@@H]23)OCO4)cc(OC)c1O,inactive
10,C[C@H](CO)N1C[C@H](C)[C@H](CN(C)Cc2cccc(O)c2)OCc2ccccc2-c2c(n(C)c3ccccc23)C1=O,inactive
11,C[C@@H]1CCCCO[C@H](CN(C)C(=O)c2ccccc2)[C@@H](C)CN([C@H](C)CO)C(=O)c2cc(NC(=O)c3ccccc3)ccc2O1,inactive
12,Cc1noc(C)c1S(=O)(=O)N(C)C[C@H]1Oc2ccc(NC(=O)NC(C)C)cc2CC(=O)N([C@@H](C)CO)C[C@@H]1C,inactive
13,O=C1N[C@@H]2[C@@H]1[C@H]1C=C[C@H]2C1,inactive
14,Nc1nnc(SC[C@@H](O)CO)s1,inactive
15,C[C@@H]1CN([C@H](C)CO)C(=O)c2cc(NC(=O)Cn3cnnn3)ccc2O[C@@H]1CN(C)CC1CC1,inactive
16,COc1ccc(S(=O)(=O)N[C@H]2CC[C@@H](CCNC(=O)CN3CCOCC3)O[C@H]2CO)cc1,inactive
17,COc1ccc(S(=O)(=O)N(C)C[C@H]2Oc3c(NC(=O)C4CCOCC4)cccc3C(=O)N([C@@H](C)CO)C[C@@H]2C)cc1,inactive
18,CSCC[C@H]1NC(=O)NC1=O,inactive
19,C[C@H]1CCCCO[C@H](CN(C)S(=O)(=O)c2ccccc2)[C@@H](C)CN([C@@H](C)CO)C(=O)c2cc(NC(=O)Nc3ccccc3)ccc2O1,inactive
20,C[C@@H]1CCCCO[C@H](CN(C)CC2CCCCC2)[C@H](C)CN([C@@H](C)CO)C(=O)c2cc(NS(=O)(=O)c3ccc(F)cc3)ccc2O1,inactive
21,COc1ccc(S(=O)(=O)N(C)C[C@@H]2OCCCC[C@H](C)Oc3ccc(NC(=O)c4ccccc4)cc3C(=O)N([C@H](C)CO)C[C@@H]2C)cc1,inactive
22,N=C(N)Nc1nc(=O)c2ccccc2s1,inactive
23,C[C@@H]1CN([C@H](C)CO)C(=O)c2cc(NC(=O)CCN3CCOCC3)ccc2O[C@H]1CN(C)C(=O)Nc1ccccc1,inactive
24,COc1ccc(S(=O)(=O)N(C)C[C@@H]2OCCCC[C@H](C)Oc3ccc(NC(=O)C4CCCCC4)cc3C(=O)N([C@H](C)CO)C[C@H]2C)cc1,inactive
25,C[C@H]1CN([C@@H](C)CO)C(=O)c2c(c3ccccc3n2C)-c2ccccc2CO[C@@H]1CN(C)S(C)(=O)=O,inactive
26,C=CCN1C(=O)[C@]2(O[C@H](CCn3cc([C@H](O)c4ccccc4)nn3)[C@@H]([Si](C)(C)c3ccc(OC)cc3)[C@@H]2C)c2cc(N3C(=O)c4cccc5cccc3c45)ccc21,inactive
27,C[C@@H]1CN([C@@H](C)CO)C(=O)c2c(c3ccccc3n2C)-c2ccccc2CO[C@H]1CN(C)Cc1cccc(C(F)(F)F)c1,inactive
28,C[C@H]1CN([C@@H](C)CO)C(=O)c2cccc(NC(=O)NC3CCCCC3)c2O[C@H]1CN(C)Cc1ccc(C(=O)Nc2ccccc2N)cc1,inactive
29,C[C@@H]1CN([C@H](C)CO)C(=O)c2cc(NC(=O)NC3CCCCC3)ccc2O[C@@H](C)CCCCO[C@@H]1CN(C)Cc1ccc(Cl)c(Cl)c1,inactive
30,Cc1noc(C)c1NC(=O)Nc1ccc2c(c1)C(=O)N([C@H](C)CO)C[C@@H](C)[C@H](CN(C)Cc1ccc(C(F)(F)F)cc1)OCCCC[C@@H](C)O2,inactive
